Measurements published in PubChem BioAssay AID652104 (National Center for Advancing Translational Sciences (NCATS), 2013).
The whole screen tested about 410,000 compounds, of which about 7,200 (1.8%) were called active. Inconclusive results, whose numbers are uncertain, are shown with a selection of clear calls. Calls come from the whole dose curve; as a rule, active = well fitted activation curve with a large enough effect; inconclusive = small, poorly fitted or top-dose-only effect, or another doubt; inactive = no such curve, though single readings can be large or run the other way. No potency is given beside an inconclusive call; the fits are too rough.
Potency is the fitted concentration of half-maximal effect; tags give direction and shape of the fitted curve.

Assay: qHTS of TDP-43 Inhibitors; note: nearly all actives have a fitted effect of over 50% in size; for growth rescue (activation): % of control where 0% means no effect
Details: TDP-43 expressing yeast growth rescue, BacTiter-Glo, 24 h; growth rescue (activation): at 46.1 µM (top of the series) unless noted
In short: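 Yeast expressing TDP-43 (pregrown in raffinose, seeded at OD600=0.02 in galactose medium) exposed to compounds 24 hr at 30 deg C. Growth read by BacTiter-Glo luminescence; rescue of toxicity appears as increased signal.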
With `Cc1ccc(NC(=O)Cn2c(=O)n(Cc3ccccc3)c(=O)c3sc4ccccc4c32)cc1` the “growth rescue (activation)” value was inactive: 16%. With `Cc1ccccc1NC(=O)c1cccc(S(=O)(=O)Oc2ccc([N+](=O)[O-])cc2)c1` the Potency was inconclusive [activator, single point]. For `N#CC1(P(=O)(c2ccccc2)c2ccccc2)CC1`, the Potency was inconclusive [activator, partial curve]. For `CC(C)Oc1ccccc1-c1nc(SCC(=O)c2ccc(F)cc2)n[nH]1`, the Potency was inconclusive [activator, single point]. In the case of `Cc1ccc(/C(N)=N/OC(=O)c2ccc3c(c2)OCO3)cc1`, the Potency was inconclusive [activator, full curve, poor fit]. For `COc1ccc(C(=O)NCCSCc2ccc(Cl)cc2)cc1OC`, the Potency was inconclusive [activator, single point]. In the case of `CC(=O)N1c2ccccc2Sc2ccccc21`, the Potency was inconclusive [activator, full curve, poor fit]. For `C/C(N)=C(/C#N)C(=O)CSc1ncnc2ccccc12`, the Potency was inconclusive [activator, single point]. In the case of `O=C(NCCS(=O)(=O)N1CCN(c2ccc(F)cc2)CC1)C(c1ccccc1)c1ccccc1`, the “growth rescue (activation)” value was inactive: 5.45%. With `CCc1nnc(NC(=O)C(CC)CC)s1` the “growth rescue (activation)” value was inactive: 2.34%. With `Cc1csc(NC(=O)Cc2ccc(Br)cc2)n1` the Potency was active: 10 µM. With `Cc1cccc(C(=O)NCc2ccc(S(N)(=O)=O)cc2)c1[N+](=O)[O-]` the “growth rescue (activation)” value was inactive: -14.2%. In the case of `CCc1ccccc1NC(=O)CSc1nncn2c1cc1oc(C)cc12`, the Potency was inconclusive [activator, single point]. In the case of `Cc1nn(-c2ccccc2)c(C)c1-c1nnc(C(F)(F)F)o1`, the Potency was inconclusive [activator, single point]. For `Cn1c2ccccc2c2cnn(CC(=O)NCCCN3CCCCC3)c(=O)c21`, the Potency was inconclusive [activator, single point]. In the case of `CC1CCN(C(=O)CSc2nc(C(C)C)nc3c2c(=O)n(C)c(=O)n3C)CC1`, the Potency was inconclusive [activator, single point]. In the case of `Cc1c(Cl)ccc2sc(N3CCN(C(=O)C4=COCCO4)CC3)nc12`, the Potency was inconclusive [activator, single point]. For `CCc1ccc(N2CC(C(=O)OCC(=O)Nc3cc(C)on3)CC2=O)cc1` (configuration not stated), the “growth rescue (activation)” value was inactive: 6.69%. For `COc1ccc(C)cc1S(=O)(=O)N1CCC(C)CC1`, the “growth rescue (activation)” value was inactive: 19%. In the case of `Cc1ccc(NC(=O)c2ccc(F)cc2)cc1S(=O)(=O)N1CCCCCC1`, the Potency was inconclusive [activator, single point]. With `C=Cc1cccc(NC(=O)c2ccc(NC(=O)c3ccco3)cc2)c1` the Potency was inconclusive [activator, partial curve]. In the case of `CC(=O)NCCc1nc2cc(NC(=O)c3ccc(F)cc3)ccc2n1C`, the Potency was inconclusive [activator, partial curve]. With `CCOc1ccc(CNC(=O)c2ccc3c(c2)c(C)c(C)n3Cc2ccccc2)cc1OC` the “growth rescue (activation)” value was inactive: 8.45%. In the case of `CC(=O)c1c(O)ccc2c(-c3ccccc3)cc(=O)oc12`, the Potency was inconclusive [activator, partial curve]. With `O=C(CN1C(=O)C2(SCC(=O)N2c2cccc(Cl)c2)c2ccccc21)NCCc1ccccc1` (configuration not stated) the “growth rescue (activation)” value was inactive: 5.15%. For `CCCCCC(=O)Nc1ccccc1N1CCN(c2ccccc2)CC1`, the Potency was inconclusive [activator, single point]. In the case of `O=C(COc1ccc(Br)cc1)Nc1nc(-c2cccnc2)cs1`, the Potency was inconclusive [activator, full curve]. With `CC1(C)Cc2c(sc3ncn4c(=S)[nH]nc4c23)CO1` the Potency was inconclusive [activator, single point]. With `CCN(c1cccc(C)c1)S(=O)(=O)c1cc(Br)cc2c1N(C(C)=O)C(C)C2` (configuration not stated) the “growth rescue (activation)” value was inactive: 14.7%. In the case of `N#C/C(=C\c1c[nH]c2ccccc12)C(=O)NC1CCCC1`, the Potency was inconclusive [activator, single point]. In the case of `CCOC(=O)CCCCC(=O)c1[nH]c(=O)[nH]c1CSc1nnc2c3ccccc3n(C(C)C)c2n1`, the Potency was inconclusive [activator, full curve, poor fit]. For `CCCCc1cc2c(s1)CCCC/C2=N/O`, the Potency was inconclusive [activator, single point]. For `COc1ccc2[nH]c3c(c2c1)CCNC3C1CC=C(C)CC1` (configuration not stated), the “growth rescue (activation)” value was inactive: 13.8%. With `COc1cccc(NC(=O)CN2C(=O)c3cccc4cccc2c34)c1` the “growth rescue (activation)” value was inactive: 24.3%. For `Cc1ccc2oc(-c3cccc(N)c3)nc2c1`, the Potency was active: 12.6 µM. For `COc1ccccc1N1CCN(C(=O)C(=O)c2cccc([N+](=O)[O-])c2)CC1`, the Potency was inconclusive [activator, partial curve]. For `CCOc1ccccc1NC(=O)C(OC(=O)c1cnc(C)cn1)c1ccccc1` (configuration not stated), the Potency was active: 17.8 µM. For `Cc1ccc(C2c3[nH]c4ccccc4c3C[C@H]3C(=O)N(c4ccccc4C(=O)N4CCC(C(=O)O)CC4)C(=O)N23)cc1` (some centres not stated), the “growth rescue (activation)” value was inactive: 17.1%. In the case of `CCOC(=O)c1sc(N)c(C(=O)Nc2ccccc2)c1C`, the Potency was active: 12.6 µM. For `Cc1ccc(C(=O)C(C)OC(=O)C2CC(=O)N(C3CCCCC3)C2)cc1` (configuration not stated), the Potency was inconclusive [activator, single point]. For `Cc1cc(/C=C2\NC(=S)N(C)C2=O)ccc1N1CCCC1`, the growth rescue (activation) was inactive: -9.17% [at 0.397 µM]. With `COc1cc(OC)cc(C(=O)NC(=S)NNC(=O)c2cnccn2)c1` the Potency was inconclusive [activator, partial curve, poor fit]. In the case of `CCOC(=O)c1cnc2cc(C(F)(F)F)ccc2c1Nc1ccc(F)cc1F`, the “growth rescue (activation)” value was inactive: 9.28%. For `CCOC(=O)N/N=C/c1c(C)nn(-c2cccc(C(F)(F)F)c2)c1Cl`, the Potency was active: 12.6 µM. For `Cc1ccsc1C(=O)N1CCN(c2ncccn2)CC1`, the Potency was inconclusive [activator, partial curve, poor fit]. In the case of `CCC(=O)N1CCc2cc(CNS(=O)(=O)c3cc(OC)ccc3OC)ccc21`, the “growth rescue (activation)” value was inactive: 5.64%. For `Cc1noc(C)c1CSCC(=O)Nc1nc2ccc(Oc3ccccc3)cc2s1`, the Potency was inconclusive [activator, partial curve].
